From publication PMC6212790
The list shows a part of the results. At the low end of the ranking the order means little.

Each sequence was assayed against T1, GST-Rok (full length) (UniProt O34857) (assay: protein binding microarray). Settings: Rok is a gene silencer of Bacillus subtilis; high values mean tight binding; most listed sequences are background and not binding sites; double strand, one strand shown.
T1 sequence: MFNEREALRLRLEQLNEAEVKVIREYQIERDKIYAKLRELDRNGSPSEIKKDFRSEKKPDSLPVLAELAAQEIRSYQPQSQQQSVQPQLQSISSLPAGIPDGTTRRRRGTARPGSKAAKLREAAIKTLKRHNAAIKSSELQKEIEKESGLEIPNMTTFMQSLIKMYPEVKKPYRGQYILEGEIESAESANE
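Also: rank score from −0.5 (least bound) to 0.5 (best bound).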

Sequence	binding signal [E-score]
AGATCACC	0.158
CATGAACA	0.047
AGGCCGCG	-0.215
ACTCATCA	0.163
CGCTTCCA	-0.116
ATGGAAAA	0.0297
GGTCGCGA	-0.153
GGGTCGCA	-0.212
TGGTCAAA	-0.0114
CGCGACAA	-0.163
ATAGAAGG	0.00765
TCCAGGCA	-0.117
CACACACA	0.0466
GTCGATGA	-0.0534
AAGCCCAT	-0.152
CTTACCAC	0.00163
AATGTTGT	0.154
TACGGATA	0.0212
ACCAGTCA	-0.0676
GCCCGAGA	-0.252
AACTAGTG	0.39
GAAGGGCC	-0.305
GAAACCAA	-0.0226
ACTAAAAG	0.303
CTTTCTCC	0.0988

Sequence	binding signal [E-score]
AAGCTAAC	-0.111
CAGTAGGC	-0.157
AGCATAAC	0.0217
CCTCATCG	-0.0228
AAGCCTAC	-0.0131
TAGCGAGA	0.123
AAGAAAGG	-0.0808
AATAGGAG	0.0707
AAACAGAA	0.0069
TCGCGGAA	0.0925
GCACTGTA	-0.03
ATCTGGCA	-0.173
GACGACTC	-0.233
ACGACCAC	-0.124
GAGATTTA	0.0346
TATCGCGA	0.115
AAGACCAC	-0.208
CAGGCTTA	-0.199
TCCTATCA	0.123
AAGGACCG	-0.233
CTACACTA	0.232
CAATCGGA	0.132
CTAACTTA	0.213
TATCAAAA	0.158
ACTGTGAA	0.0225

Sequence	binding signal [E-score]
AGTATCTC	0.238
ACAATATC	0.217
AGATCACT	-0.0981
GCCAACAC	-0.068
ACTCACTG	-0.00121
AACGTTCC	-0.161
ACATAACA	0.238
CGATACTA	0.328
AACGAACG	-0.0939
GCTTCTAC	0.295
CTTCCAAC	-0.238
AACTTGAG	-0.00396
AATAGCAA	0.229
ACCTGTAC	0.103
ACGAAAAA	-0.0171
GGAGCGAA	-0.209
CAAACAAG	-0.113
AGGTCCCA	-0.142
GTCGGAAA	-0.231
CACTCGCC	-0.278
ATTGTTCC	-0.0436
CTTGGTCA	-0.139
GGTCCACC	-0.365
CCGAGTCC	-0.265
GAATGGTC	0.0086

Sequence	binding signal [E-score]
AACATGCT	0.000188
ACTGTGGA	-0.123
AATCCAAA	0.0354
CCTTAGAC	-0.0943
CACTGCAA	-0.0826
ACGCGAGT	-0.121
ACCCTAGG	-0.193
CGCGCGCC	-0.242
AACTGCTT	0.0154
ATCAACAG	0.197
GCGCGTCA	-0.282
AGCACACA	-0.176
ACGCTGAA	0.0233
CTAGTATC	0.241
ATAGATTA	0.301
CCAAAAAC	0.0933
TATGTAGA	0.292
TAGTAACA	0.366
AAAAAACG	0.13
CAACAACG	0.0142
AAGAAGCG	-0.137
GACTTAGC	0.00602
ATATTCCA	0.261
CAACTGGC	-0.228
AATAACCC	-0.0129

Sequence	binding signal [E-score]
CGTTAGCA	-0.119
ATGGCATG	-0.0934
AGTGCACT	0.155
CAAGCCTG	-0.125
AACGCGAT	-0.00113
GGGGAACA	-0.118
CTCCGCCC	-0.38
CGTTGAAG	0.0718
CACGAACA	-0.0305
ATCACAGG	-0.105
GCTCCCGA	-0.299
ACCGAAAG	-0.236
GACGTGCC	-0.201
GGCGAGAC	-0.285
CCACACCA	0.0354
ACAGGATC	0.0392
ATTGATGC	-0.0878
AATGATTC	0.111
CGGTCAAA	-0.104
CTTTAACA	-0.0713
AGGGTGGG	-0.115
AGACTTAG	-0.0479
ACTTCAAA	0.0898
CACTTTCA	0.01
CTCATGTA	0.275

Sequence	binding signal [E-score]
GCGTGAGC	-0.289
TAAAGAAA	-0.058
AACGAGGT	-0.102
AGCACCCT	-0.103
CGCGCGCG	0.183
CGCCGAAC	-0.0302
ATCATCCG	0.0145
AGATTTTA	0.294
GGAGGCAC	-0.254
CAATTCCC	0.0664
GAACACGA	-0.0187
CGAAACTA	0.446
CAAGTATA	0.204
CTGTGTAC	0.165
CCATGCAC	-0.225
TGCACCAA	-0.0683
AACAGTTA	0.238
GCCGTAAC	0.044
CCAGCCGC	-0.399
ATGACTAC	0.0883
ATGCTTCG	-0.00471
ATCTTCAC	0.146
AGCAGCAG	-0.124
ACTAGTAA	0.382
ACAGTAAA	0.24

Sequence	binding signal [E-score]
AGGCTACC	-9.3e-05
ATGACACC	0.0339
ACGGTATC	0.0533
ATGGTACG	0.183
GAGGAAAC	-0.178
AGATCGAG	0.0416
AACATGAG	0.0158
CAACGGTG	-0.212
ACTCGGAC	-0.182
CCTGCGCG	-0.105
GGTCGTGA	-0.125
ACCGTTAT	0.21
CGGAATTC	0.052
AGAGGTGC	-0.0479
AGACTTAC	0.0503
AAGCGCAA	-0.0404
AAAGGTTA	-0.0833
AGTGCCCC	-0.307
CTGGCTTA	-0.0246
TGAGCCAA	-0.197
AGGCCCCG	-0.384
TCAGATGA	-0.14
